Drawing on publication PMC11911400, “Mechanism of ASF1 engagement by CDAN1” (Nature Communications, 2025), this text covers binding for one molecule.

These are yes or no findings as the source states them, for the method shown. Binding seen in cells or lysates may run through a third protein. Some entries that bind do so weakly or less than the wild type.

Experiment [1] concerns the target T1, Strep-CDAN1 HMHA2* (R251A/R255A/R258A) (human) (UniProt Q8IWY9).
T1 sequence: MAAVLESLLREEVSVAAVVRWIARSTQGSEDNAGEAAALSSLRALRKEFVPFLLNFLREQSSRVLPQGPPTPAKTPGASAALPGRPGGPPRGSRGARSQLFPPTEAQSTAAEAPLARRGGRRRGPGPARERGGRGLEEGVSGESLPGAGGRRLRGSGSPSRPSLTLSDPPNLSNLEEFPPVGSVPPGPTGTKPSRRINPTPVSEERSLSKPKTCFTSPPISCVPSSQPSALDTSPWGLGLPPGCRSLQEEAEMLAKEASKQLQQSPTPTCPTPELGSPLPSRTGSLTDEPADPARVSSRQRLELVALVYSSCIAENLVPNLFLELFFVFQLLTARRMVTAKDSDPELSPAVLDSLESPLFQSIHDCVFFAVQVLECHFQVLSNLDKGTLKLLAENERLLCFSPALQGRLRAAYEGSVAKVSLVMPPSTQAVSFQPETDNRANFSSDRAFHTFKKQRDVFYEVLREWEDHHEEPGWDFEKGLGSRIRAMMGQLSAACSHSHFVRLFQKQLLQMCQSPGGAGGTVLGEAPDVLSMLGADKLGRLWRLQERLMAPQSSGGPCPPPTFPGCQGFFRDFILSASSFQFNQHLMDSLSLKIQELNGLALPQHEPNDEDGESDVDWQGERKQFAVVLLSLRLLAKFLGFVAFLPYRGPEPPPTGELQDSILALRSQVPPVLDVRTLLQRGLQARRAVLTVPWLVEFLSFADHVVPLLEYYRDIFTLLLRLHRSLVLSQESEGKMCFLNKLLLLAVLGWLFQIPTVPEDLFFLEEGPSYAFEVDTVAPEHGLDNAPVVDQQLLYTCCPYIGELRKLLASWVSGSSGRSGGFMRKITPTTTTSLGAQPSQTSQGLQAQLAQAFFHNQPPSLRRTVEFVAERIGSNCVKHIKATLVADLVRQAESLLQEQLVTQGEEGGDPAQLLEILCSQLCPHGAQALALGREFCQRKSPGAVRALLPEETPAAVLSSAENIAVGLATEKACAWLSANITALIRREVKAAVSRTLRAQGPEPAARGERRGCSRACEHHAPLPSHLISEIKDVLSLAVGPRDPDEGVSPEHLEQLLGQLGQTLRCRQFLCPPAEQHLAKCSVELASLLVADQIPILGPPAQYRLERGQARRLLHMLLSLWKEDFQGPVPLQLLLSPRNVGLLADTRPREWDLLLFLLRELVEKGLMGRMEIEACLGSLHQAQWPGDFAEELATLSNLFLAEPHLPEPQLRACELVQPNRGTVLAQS
Description: pull-down; Strep-Tactin pulldown of transiently transfected ST-CDAN1 variants from Flp-In 293 T-REx lysates; endogenous ASF1A, ASF1B and CDIN1 detected by immunoblotting; IP buffer with 1% Triton X-100, 1 hr at 4 °C. For orientation: Immunoblotting shows a protein as a band on a membrane.

Experiment [2] addresses T2, Strep-CDAN1 HMHA1* (R541A/R544A/R548A) (human) (UniProt Q8IWY9).
T2 sequence: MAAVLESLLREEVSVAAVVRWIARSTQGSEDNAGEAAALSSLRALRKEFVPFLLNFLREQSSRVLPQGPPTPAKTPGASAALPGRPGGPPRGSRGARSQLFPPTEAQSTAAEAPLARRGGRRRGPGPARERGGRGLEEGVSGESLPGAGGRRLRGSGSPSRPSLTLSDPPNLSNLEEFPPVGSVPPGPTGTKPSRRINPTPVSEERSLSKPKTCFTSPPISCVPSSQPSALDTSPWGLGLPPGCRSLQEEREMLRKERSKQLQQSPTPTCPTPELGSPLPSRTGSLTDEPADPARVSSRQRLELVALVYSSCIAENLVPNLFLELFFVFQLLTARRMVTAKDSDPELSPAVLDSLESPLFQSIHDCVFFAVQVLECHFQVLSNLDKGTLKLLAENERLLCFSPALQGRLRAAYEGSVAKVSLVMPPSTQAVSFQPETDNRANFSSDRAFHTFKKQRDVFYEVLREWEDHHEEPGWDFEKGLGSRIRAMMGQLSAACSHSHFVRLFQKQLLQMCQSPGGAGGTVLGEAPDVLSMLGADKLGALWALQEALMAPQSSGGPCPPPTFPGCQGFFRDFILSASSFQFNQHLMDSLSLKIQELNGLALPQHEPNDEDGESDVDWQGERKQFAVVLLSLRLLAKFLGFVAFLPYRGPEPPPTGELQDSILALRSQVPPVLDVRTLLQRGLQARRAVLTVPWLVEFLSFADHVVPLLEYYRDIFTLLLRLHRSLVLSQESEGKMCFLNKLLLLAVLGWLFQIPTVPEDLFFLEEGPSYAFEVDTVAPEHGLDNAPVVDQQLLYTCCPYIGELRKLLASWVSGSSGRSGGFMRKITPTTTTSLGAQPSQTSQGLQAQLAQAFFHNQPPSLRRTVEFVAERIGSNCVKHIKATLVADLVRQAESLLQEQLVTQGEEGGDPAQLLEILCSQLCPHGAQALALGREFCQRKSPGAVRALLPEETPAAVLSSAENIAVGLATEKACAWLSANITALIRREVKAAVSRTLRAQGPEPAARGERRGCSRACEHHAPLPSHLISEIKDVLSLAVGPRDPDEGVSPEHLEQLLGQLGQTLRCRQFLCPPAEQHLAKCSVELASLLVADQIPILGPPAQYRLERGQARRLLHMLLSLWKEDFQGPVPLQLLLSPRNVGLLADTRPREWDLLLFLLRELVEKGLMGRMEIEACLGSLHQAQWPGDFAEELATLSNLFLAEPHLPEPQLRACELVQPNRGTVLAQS
Described as above.

B1: FLAG-tagged CDIN1 (F-CDIN1) (natural protein, UniProt Q9Y2V0 1-281, looked up)
chain: MILTKAQYDEIAQCLVSVPPTRQSLRKLKQRFPSQSQATLLSIFSQEYQKHIKRTHAKHHTSEAIESYYQRYLNGVVKNGAAPVLLDLANEVDYAPSLMARLILERFLQEHEETPPSKSIINSMLRDPSQIPDGVLANQVYQCIVNDCCYGPLVDCIKHAIGHEHEVLLRDLLLEKNLSFLDEDQLRAKGYDKTPDFILQVPVAVEGHIIHWIESKASFGDECSHHAYLHDQFWSYWNRFGPGLVIYWYGFIQELDCNRERGILLKACFPTNIVTLCHSIA
notes: C15orf41); cDNA synthesized by IDT; source: Expi293, transiently transfected, in lysate and purified in complexes (anti-FLAG, Strep-Tactin); not shown: 3xFLAG, N-terminal, kept
Take B1: the binding entry in experiment [1] and in experiment [2] was “binds” throughout.
